Results taken from PubChem BioAssay AID995 (National Center for Advancing Translational Sciences (NCATS), 2007).
Among all 72,000 compounds or so, about 710 (0.99%) were called active. Inconclusive means that the source gave no clear call. Such entries were picked first, then a sample of the others. Calls follow the shape of the dose curve; as a rule, active = well fitted inhibition curve with a large enough effect; inconclusive = small, poorly fitted or top-dose-only effect; inactive = no such curve, though single readings can be large or run the other way. Potencies of inconclusive entries are left out as doubtful fits.

experiment: qHTS Assay for Inhibitors of the ERK Signaling Pathway using a Homogeneous Screening Assay; conditions: HEK293-V1b, vasopressin-stimulated pERK AlphaScreen; activity, negative = inhibition: at 57.5 µM (top of the series) unless noted; also: nearly all actives have a fitted effect of over 55% in size
How it was run: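 HEK293 cells stably expressing V1b receptor, seeded overnight in 1% FBS, were treated with compounds for 30 min at 37C, then stimulated 5 min with 25 nM vasopressin; phospho-ERK read by AlphaScreen SureFire after lysis.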
% is scaled to controls: 0 for no effect and ±100 for the full control effect; potency is read from the fitted curve at half-maximal effect; tags tell the direction and shape of the fitted curve.

| SMILES | Potency | activity, negative = inhibition |
| --- | --- | --- |
| CC1CCN(C(=O)COC(=O)c2cc3ccccc3cc2O)CC1 | inconclusive [inhibitor, single point] |  |
| CCc1nnc(NC(=O)Cn2nnc(-c3ccccc3F)n2)s1 | inactive |  |
| O=C(C1CCCCC1)N1CC(=O)N2CCc3ccccc3C2C1 (stereo not given) | inconclusive [inhibitor, single point] |  |
| CCC(=O)Nc1nonc1-c1nc2ccccc2n1CC(C)C | inactive |  |
| Cc1cc(C)nc(/N=C2\NC(=O)CC(C(=O)O)N2CCc2c[nH]c3ccccc23)n1 (stereo not given) | inconclusive [inhibitor, partial curve] |  |
| CC(C)CCn1c(SCC#N)nc2c(sc3ccccc32)c1=O | inactive |  |
| C=CCOC(=O)C(C#N)c1nc2ccccc2nc1N1CCN(Cc2ccccc2)CC1 (stereo not given) | inconclusive [inhibitor, partial curve] |  |
| Cc1ccccc1OCCCCCn1ccnc1 | inconclusive [inhibitor, partial curve, poor fit] |  |
| CC(=O)c1c(C)[nH]c(C(=O)NCc2ccccn2)c1C | inactive |  |
| CC(=O)N1CCN(c2ccc(NC(=O)COc3ccc(Cl)cc3Cl)cc2)CC1 | inconclusive [inhibitor, partial curve] |  |
| COC(=O)c1ccccc1NC(=O)c1cncc(Br)c1 | inconclusive [inhibitor, single point] |  |
| CSc1ccc(Cl)c(C(=O)NCc2ccco2)c1 |  | inconclusive: -46.4% [inhibitor] |
| CC(C)COC(=O)NCCOC(=O)Nc1cccc(Cl)c1 | inconclusive [inhibitor, partial curve] |  |
| COc1cc(NC(=O)CN(C)S(=O)(=O)c2ccc(C)cc2)cc(OC)c1 | inconclusive [inhibitor, partial curve] |  |
| CCOC(=O)Cn1c(=O)c2c(nc(N3CCCCC3)n2C)n(C)c1=O | inconclusive [inhibitor, single point] |  |
| CSCCC1NC2(C(=O)Nc3c2ccc(Cl)c3C)[C@@H]2C(=O)N(C3CCCC3)C(=O)[C@H]12 (stereo not given in full) | inconclusive [inhibitor, single point] |  |
| CCOCCOC(=O)C1=C(C)Nc2ccc(C)cc2S1 | inactive |  |
| c1csc(CNc2ccnc(-c3ccc4c(c3)OCO4)n2)c1 | inconclusive [inhibitor, single point] |  |
| C=CCn1c(=N)c(C(=O)NCCCOC)cc2c(=O)n3cccc(C)c3nc21 | inconclusive [inhibitor, full curve] |  |
| COc1ccc(C(=O)CSc2nc(SC)ns2)cc1OC | inconclusive [inhibitor, full curve] |  |
